Laboratory results as given in patent US5710022, “Nuclear mitotic phosphoprotein” (Board of Regents of the University of Texas System, dated 1998).

Biological target: purified p56-RB (Homo sapiens (Human), UniProt P06400)
Test: blot of purified GST fusion proteins probed with the Rb-sandwich
From the text: (A) Two identical blots containing seven purified MBP fusion proteins were probed with either the "Rb-sandwich" (lanes 1–7) or with an antibody to MBP (New England Biolabs) (lanes 8–14). […] (B) Similarly, two identical blots of the purified GST-fusion proteins were probed with either the "Rb-sandwich" (lanes 15–17) or with an antibody to GST (lanes 18–20). […] (C) A diagram of the different constructs used in this experiment. […] (D) Sequence comparison of the Rb-binding region of mitosin with the Rb-binding domain of E2F-1 (in bold letters) and neighboring residues (SEQ. ID NOS: 3 and 4). […] Dashed lines indicate conserved residues and solid lines indicate identical residues.

B1: GST alone (other)
chain: not shown
  binding result: no binding
